42 compounds from ChEMBL document CHEMBL4888484, “Replenishing the malaria drug discovery pipeline: Screening and hit evaluation of the MMV Hit Generation Library 1 (HGL1) against asexual blood stage Plasmodium falciparum ,using a nano luciferase reporter read-out” (2022) can be followed below.

Out of some 150,000 compounds screened, about 540 (0.36%) showed an effect of 50% or more. This is one part of the list.

This experiment concerns Plasmodium falciparum. Kind of experiment: Primary screen in NF54 nanoGlo assay, in single point, at 2uM, 72h; a lower Z score goes with more inhibition. Type of experiment: functional, Erythrocyte. The settings on record: timepoint 72 hour.
Turning to `Cc1cnc(C2CC2)n1[C@H]1CCCN(C(=O)CCc2ccccc2)C1`, the “% Inhibition” value is -10% and the Z score was found to be 1.25.
`O=C(c1ccc(F)cc1)N1CCC[C@H]1c1nc2ccccc2s1`: the “% Inhibition” value is 8% and the Z score is -0.99.
In the same order, the values of `CCC[C@@]1(C)CCCN(c2ncccc2-c2nc(C)no2)C1` are -17% and 1.56.
`O=C(COc1ccccc1)Nc1ccc2c(c1)C(=O)N1CCC[C@H]1C(O)=N2`: the “% Inhibition” value was -9% and the Z score came out at 1.39.
For `CO[C@@]12CC[C@@H](NC(C)=O)C[C@@H]1N(C(=O)CCCCc1ccccc1)CC2`, in that order: -18% and 1.93.
For `CC(C)[C@H](CCO)NS(=O)(=O)c1cc(F)ccc1F`, in that order: -17% and 1.98.
In the same order, the values of `COc1ccccc1-c1noc([C@@H](c2cccc(Br)c2)N2CCCC2)n1` are -8% and 0.73.
For the compound `CC(C)(C)[C@@]1(O)NS(=O)(=O)c2cccc(Cl)c21`, the “% Inhibition” value is -23% and the Z score was found to be 2.76.
In the same order, the values of `CCOc1ccccc1-c1cc(C(=O)NCc2ccncc2)c2ccccc2n1` are -12% and 1.74.
For `CC[C@H](OC1CCCC1)C(=O)Nc1ccc(O)cc1C`, in that order: -15% and 1.95.
In the same order, the values of `COc1ccc(-c2nnc3c4ccccc4nc(N4CCCN(C(=O)OCc5ccccc5)CC4)n23)cc1` are -4% and 0.5.
For `CCCC(=O)N1CCCC1C(=O)OCC1CCN(c2ccccc2)C1` (centres undefined), the “% Inhibition” value is given as -1% and the Z score was determined as 0.25.
In the same order, the values of `FC(F)c1nnc2ccc(N3CCC[C@@H]4CCCC[C@@H]43)nn12` are 7% and -0.91.
In the same order, the values of `CC1Cc2cn[nH]c2C(C(=O)Nc2ccc(CCN(C)C)cc2)C1` (centres undefined) are -6% and 1.
For `CCc1noc(C)c1C(=O)N(C)C1CCN(c2ccccn2)CC1`, in that order: -18% and 3.34.
On to `CN1c2cccnc2CN(C(=O)NC2CCCCC2)CC[C@H]1CO`, for which the “% Inhibition” value is listed as -1% and the Z score is 0.17.
As to `CCNC(=O)N(CC(=O)N1CCc2sccc2[C@@H]1COc1ccccc1C)CC1CC1`, the “% Inhibition” value was -3% and the Z score came out at 0.44.
For `CC1(C)C[C@@H](c2noc(-c3ccc(N4CCCC4=O)cc3)n2)CCO1`, in that order: -4% and 0.69.
In the same order, the values of `CCc1cc(N(C)Cc2ncccn2)ncn1` are -7% and 1.32.
On to `NC(=O)c1ccn(-c2ccccc2NC(=O)[C@@H]2CC=CCC2)n1`, for which the “% Inhibition” value is on record as -9% and the Z score turned out to be 2.
In the same order, the values of `Clc1ccccc1CN1CCN(c2cncc3nncn23)CC1` are -2% and 0.31.
In the same order, the values of `CN(c1cccnn1)S(=O)(=O)c1cnc2n1CCC2` are 3% and -0.5.
In the same order, the values of `COc1cc(=O)n2c(c1C(=O)NCc1c(C)n[nH]c1C)CCCCC2` are -10% and 1.12.
As for `Cc1cc(CC(=O)N(C)Cc2ccncc2)n[nH]1`, the “% Inhibition” value is recorded as -17% and the Z score was found to be 1.84.
In the same order, the values of `Cc1nc(C)c(C(=O)OCc2csc(-c3ccccc3)n2)s1` are -9% and 1.13.
In the same order, the values of `Cn1nc([C@@H]2CCCO2)cc1NC(=O)NCC(F)(F)F` are -12% and 1.13.
For `CC(=O)O/N=C(/c1ccc2c(c1)OCO2)N1CCOCC1`, in that order: -9% and 1.68.
In the case of `COc1c(F)cccc1C(=O)Nc1ccc2c(c1)C[C@H](C)O2`, the “% Inhibition” value was -3% and the Z score was 0.56.
For the compound `Cc1ccc(C2=C[C@@H](c3ccc(C)cc3)n3nnnc3N2CC(=O)Nc2cccc(F)c2)cc1`, the “% Inhibition” value is -7% and the Z score came to 0.67.
In the same order, the values of `CC1(C)C(=O)Nc2ccc(C(=O)N[C@H]3CCCn4ncnc43)cc21` are 1% and -0.21.
In the same order, the values of `O=C(c1cnccn1)N1C[C@H]2CC[C@@H](C1)N(C(=O)CC1CCCC1)C2` are 3% and -0.57.
In the same order, the values of `Cc1nsc(C(=O)NCc2ccc(CCO)cc2)n1` are 9% and -1.56.
As for `O=C(COC(=O)c1ccc(-c2ccccc2)cc1)Nc1ccc2c(c1)OCO2`, the “% Inhibition” value is listed as -7% and the Z score worked out at 1.34.
In the same order, the values of `CC(C)N(CC(=O)N(C)C(C)(C)C#N)Cc1cccc(Cl)c1` are 0% and -0.02.
In the same order, the values of `CC(C)CCOc1ccc(CN(CC(C)(C)N(C)C)C(=O)NCC(F)(F)F)cc1` are -8% and 1.49.
For `Cc1cc(Cl)ccc1NC(=O)NCC(=O)N(C)C`, in that order: -6% and 1.16.
As to `CC(C)C1=NO[C@H](C(=O)NCc2ccc3[nH]cnc3c2)C1`, the “% Inhibition” value worked out at 14% and the Z score is reported as -1.64.
For `Cc1noc(C)c1CC(=O)N[C@H]1CC[C@H](Oc2cnccn2)CC1`, in that order: -10% and 1.15.
For `Cc1ccc(-c2ncn(C3CCCC3)c2-c2ccc(C(=O)NCc3ccccc3C)o2)cc1`, in that order: 2% and -0.29.
For `O=C1Nc2cc(C(=O)N3CCN(c4cccc(C(F)(F)F)c4)CC3)ccc2N2CCCC[C@@H]12`, in that order: -6% and 0.89.
With `Cc1nnc(CC(=O)N2CCC(Cc3cc(F)cc(F)c3)CC2)o1`, the “% Inhibition” value is -7% and the Z score worked out at 0.9.
For `C[C@H]1CN(Cc2cccnc2)CCN1C(=O)c1ccnc(C2CCCC2)n1`, in that order: -7% and 0.94.

Broadly, the % Inhibition is the change of the read-out against control, counted positive when it falls.
